Data reported in article PMC4336329 (PLoS ONE, 2015).
In all, about 310,000 compounds went through this assay and about 2,200 (0.71%) showed an effect of 50% or more. Effects have a minus sign here. The list shows a part of the results.

Target: human ether-à-go-go-related gene (hERG) potassium channel (human, UniProt Q12809)
Assay: primary screen, population patch clamp on CHO cells stably expressing hERG

Chain of human ether-à-go-go-related gene (hERG) potassium channel (Q12809 whole entry, looked up): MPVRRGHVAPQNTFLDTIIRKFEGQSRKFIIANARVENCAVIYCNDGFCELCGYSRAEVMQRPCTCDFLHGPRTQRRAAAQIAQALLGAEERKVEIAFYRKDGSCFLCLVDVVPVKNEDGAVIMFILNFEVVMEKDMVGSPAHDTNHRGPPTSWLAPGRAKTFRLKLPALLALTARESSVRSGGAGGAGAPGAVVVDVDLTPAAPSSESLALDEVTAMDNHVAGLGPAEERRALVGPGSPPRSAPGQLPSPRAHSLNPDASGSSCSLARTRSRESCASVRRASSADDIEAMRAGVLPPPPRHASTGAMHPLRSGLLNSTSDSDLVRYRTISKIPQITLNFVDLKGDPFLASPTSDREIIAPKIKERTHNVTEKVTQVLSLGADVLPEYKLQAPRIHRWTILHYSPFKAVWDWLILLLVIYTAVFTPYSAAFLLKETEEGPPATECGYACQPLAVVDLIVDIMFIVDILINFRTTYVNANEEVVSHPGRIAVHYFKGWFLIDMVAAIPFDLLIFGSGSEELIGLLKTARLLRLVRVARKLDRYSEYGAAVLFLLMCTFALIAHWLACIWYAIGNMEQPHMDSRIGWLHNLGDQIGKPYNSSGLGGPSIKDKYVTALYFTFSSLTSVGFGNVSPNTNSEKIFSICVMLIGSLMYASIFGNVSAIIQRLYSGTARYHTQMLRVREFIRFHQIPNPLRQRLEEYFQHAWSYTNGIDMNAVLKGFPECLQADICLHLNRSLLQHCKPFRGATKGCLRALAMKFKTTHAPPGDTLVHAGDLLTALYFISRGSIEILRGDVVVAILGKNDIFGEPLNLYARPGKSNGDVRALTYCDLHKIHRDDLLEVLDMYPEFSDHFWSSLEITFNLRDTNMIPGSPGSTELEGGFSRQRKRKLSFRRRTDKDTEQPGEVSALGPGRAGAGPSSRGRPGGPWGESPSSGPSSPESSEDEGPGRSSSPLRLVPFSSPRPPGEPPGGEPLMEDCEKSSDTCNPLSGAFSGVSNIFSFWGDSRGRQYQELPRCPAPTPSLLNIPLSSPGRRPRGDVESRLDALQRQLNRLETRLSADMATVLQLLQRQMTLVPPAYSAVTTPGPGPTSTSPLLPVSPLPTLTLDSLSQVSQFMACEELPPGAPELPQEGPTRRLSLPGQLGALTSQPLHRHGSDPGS

| Structure (SMILES) | hERG current change (%, negative = inhibition) at 1uM [%] |
| --- | --- |
| Cc1ccc(-c2nc(SC(C)C(=O)N3CCCC3)n[nH]2)cc1 (stereo not drawn) | 16.2 |
| CC(=O)N1CCOc2ccc(S(=O)(=O)N3CCC(C(=O)Nc4ccc(C)cc4)CC3)cc21 | 15.6 |
| CCOc1ccc(N(CC(=O)Nc2ccc(C)cc2)S(=O)(=O)c2c(C)noc2C)cc1 | 2.26 |
| Cc1c(NC(=O)c2cc(C3CC3)on2)c(=O)n(-c2ccccc2)n1C | 6.95 |
| O=C(Nc1ccn(Cc2ccccc2F)n1)c1ccc(COc2cccc(Br)c2)cc1 | 5.64 |
| CC(C)CCn1c(COc2ccccc2)n[nH]c1=S | 11 |
| O=C(COC(=O)C1C2CC3OC(=O)C1C3C2)Nc1ccc(Cl)cc1 (stereo not drawn) | -9.01 |
| O=C(CSc1nc(O)cc(=O)[nH]1)N1CCCc2ccccc21 | 21 |
| Cn1cc(S(=O)(=O)Oc2ccccc2)c(=O)n(C)c1=O | 5.66 |
| Cc1ccc(NC2OC(CO)C(O)C(O)C2O)cc1 (stereo not drawn) | -14.4 |
| CCCC(C(=O)Nc1cccc(S(=O)(=O)N2CCCC2)c1)c1ccccc1 (stereo not drawn) | -28.3 |
| CCOc1ccccc1C(=O)NCCCN1CCN(CCCNC(=O)c2ccccc2OCC)CC1 | -21.6 |
| Cc1cc(NC(=O)CNC(=O)C2CCCCC2)no1 | 14.7 |
| COc1ccc(/C=N/NC(=O)c2[nH]ncc2Br)c(OC)c1 | 7.35 |
| O=C(NCCS(=O)(=O)NCc1ccccn1)c1ccccc1 | 8.81 |
| CCc1ccc(-c2cc(C(=O)N/N=C/c3ccccn3)[nH]n2)cc1 | 6.44 |
| CC1(C)CC(O)(CCNCc2ccc3c(c2)OCO3)CCO1 (stereo not drawn) | -2.79 |
| CN(C)CCN(C(=O)c1ccc2ccccc2c1)c1nc2ccc(F)cc2s1.Cl | 8.81 |
| COc1ccc(NC(=O)c2cc(C)cc(C)c2)cc1S(=O)(=O)N1CCCCC1 | 14.9 |
| CCc1ccccc1NC1Nc2cc(C)nn2S1 (stereo not drawn) | 6.8 |
| COc1ccc(C(C#N)N2N=C(C)CC2(C)C)cc1OC (stereo not drawn) | 7.74 |
| CN(CC(=O)Nc1ccc(C#N)cc1)Cc1ccc(Cl)c(Cl)c1 | -13.5 |
| C/C(=N/NC(=O)Cc1cc(=O)[nH][nH]1)c1ccc([N+](=O)[O-])cc1 | -9.19 |

| Structure (SMILES) | hERG current change (%, negative = inhibition) at 1uM [%] |
| --- | --- |
| O=c1ccc(Cl)nn1-c1ccccc1 | 13.5 |
| O=C(Nc1cccc([N+](=O)[O-])c1)c1cc2ccccc2cc1O | 14.2 |
| O=C(NCc1ccccc1)c1cccc(Br)n1 | 18.5 |
| Cn1c(=O)c(=O)n(C)c2cc(S(=O)(=O)N3CCC(N4CCCCC4)CC3)ccc21 | -2.69 |
| CCCS(=O)(=O)c1nc(S(=O)(=O)c2ccc(C)cc2)c(NCCCN2CCCC2=O)s1 | 6.91 |
| CCCCc1ccc(NC(=O)N[C@H](C(=O)O)C(C)C)cc1 | 6.8 |
| CC[C@H](C)[C@H](NC(N)=O)C(=O)NCCc1ccc(Cl)cc1 | 12 |
| COc1ccccc1N(C(=O)c1ccncc1)c1nc(-c2ccc([N+](=O)[O-])cc2)cs1 | 3.47 |
| C(=N\N1CCN(Cc2cccc3ccccc23)CC1)/c1ccco1 | 4.64 |
| Cn1c(=O)c2c(ncn2CC(=O)NCc2cccnc2)n(C)c1=O | 13.2 |
| Cc1ccc(C2/C(=C(/O)c3ccccc3)C(=O)C(=O)N2CCN2CCOCC2)o1 (stereo not drawn) | -0.845 |
| CN(C)c1nc(NCc2ccccc2)nc(N/N=C/c2ccc3c(c2)OCO3)n1 | 9.67 |
| O=C(c1cccc(Cl)c1)N1CCN(c2ccc(N3CCOCC3)nn2)CC1 | -6.34 |
| CC1CC(C(F)F)n2nc(C(=O)O)cc2N1 (stereo not drawn) | -6.31 |
| COc1ccc(/C=C2\SC(=O)N(CC(=O)Nc3ccc(O)cc3)C2=O)cc1OC | 16.8 |
| O=C(NNC(=O)c1cccnc1)NC12CC3CC(CC(C3)C1)C2 | 7.44 |
| CS(=O)(=O)N1CCc2cc(S(=O)(=O)N3CCCCC3)ccc21 | 3.18 |
| COc1ccccc1OCC(=O)NNC(=O)c1cnccn1 | 13.5 |
| CCOc1ccc(NC(=O)C2CC(=O)N(c3ccc4c(c3)OCCO4)C2)cc1OCC (stereo not drawn) | -0.168 |
| CCCCOC(=O)CNc1nnc(SCC(=O)OCC)[nH]c1=O | 17.9 |
| Cc1ccccc1CSc1nnc(-c2ccco2)n1Cc1ccco1 | -26.4 |
| O=P(C(=NCCO)NO)(N1CCOCC1)N1CCOCC1 | 11.3 |
